According to article PMC12820563, “FoxP3 forms a head-to-head dimer in vivo and stabilizes its multimerization on adjacent microsatellites”:
Some of the results follow.

These sequences were tested against T1, MBP-FoxP1dN (Mus musculus, UniProt P58462 326-579) (assay: PD-seq (MBP pull-down with sequencing); 20 mM Tris-HCl pH 7.5, 100 mM NaCl, 1.5 mM MgCl2, 0.4 uM protein, 0.1 uM dsDNA library, 30 min, room temperature, amylose pull-down; high values mean tight binding). Conditions: protein: recombinant; tags: His6-MBP; chain copies: 2; dsDNA, one strand shown.
T1 sequence: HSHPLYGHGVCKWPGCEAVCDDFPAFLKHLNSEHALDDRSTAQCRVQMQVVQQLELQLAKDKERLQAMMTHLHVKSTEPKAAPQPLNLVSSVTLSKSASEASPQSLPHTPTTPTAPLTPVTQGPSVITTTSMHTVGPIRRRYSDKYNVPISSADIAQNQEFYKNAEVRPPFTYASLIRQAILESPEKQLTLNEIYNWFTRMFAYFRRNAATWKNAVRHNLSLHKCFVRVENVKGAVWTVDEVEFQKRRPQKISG
Summary of the method: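 Binding is given as reads-per-million enrichment, pull-down over input, with replicates pooled. The bait was an N-terminus-lacking mouse FoxP3 or FoxP1 fragment with a His6-MBP tag, expressed in E. coli and used at 0.4 µM with 0.1 µM Klenow-filled degenerate double-stranded DNA library for 30 min at room temperature in Tris pH 7.5 buffer with NaCl and MgCl2. Amylose resin pull-down with three washes was followed by proteinase K release, PCR barcoding and Illumina sequencing.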
In the case of “GATGATTGTTCTCCCAGCTGATGAATTACCGCACTCGAGTAAACAAATTTTCCTAATCTTTCTGTTCAAGCGCCATCTAC”, the binding signal is reported as 0.939 RPM ratio (pull-down/input).
“GATGATTGTTCTCCCAGCTGATGAATTGAATTGATCGAGTAAACAAATTTTCCTAATCTTTCTGTTCAAGCGCCATCTAC” was tested, and the binding signal was 0.941 RPM ratio (pull-down/input).
For “GATGATTGTTCTCCCAGCTGATGAATTGCGATAATCGAGTAAACAAATTTTCCTAATCTTTCTGTTCAAGCGCCATCTAC”, the binding signal was 1.43 RPM ratio (pull-down/input).
With “GATGATTGTTCTCCCAGCTGATGAATTATATATGTCGAGTAAACAAATTTTCCTAATCTTTCTGTTCAAGCGCCATCTAC” the binding signal was 1.12 RPM ratio (pull-down/input).
“GATGATTGTTCTCCCAGCTGATGAATTTTGTGGATCGAGTAAACAAATTTTCCTAATCTTTCTGTTCAAGCGCCATCTAC” was tested, and the binding signal was 1.13 RPM ratio (pull-down/input).
For “GATGATTGTTCTCCCAGCTGATGAATTCCGAGACTCGAGTAAACAAATTTTCCTAATCTTTCTGTTCAAGCGCCATCTAC”, the binding signal was 0.759 RPM ratio (pull-down/input).
In the case of “GATGATTGTTCTCCCAGCTGATGAATTCCTAGAATCGAGTAAACAAATTTTCCTAATCTTTCTGTTCAAGCGCCATCTAC”, the binding signal is reported as 0.911 RPM ratio (pull-down/input).
With “GATGATTGTTCTCCCAGCTGATGAATTCGTTGGGTCGAGTAAACAAATTTTCCTAATCTTTCTGTTCAAGCGCCATCTAC” the binding signal was 0.781 RPM ratio (pull-down/input).
For “GATGATTGTTCTCCCAGCTGATGAATTCCAGCACTCGAGTAAACAAATTTTCCTAATCTTTCTGTTCAAGCGCCATCTAC”, the binding signal was 0.792 RPM ratio (pull-down/input).
With “GATGATTGTTCTCCCAGCTGATGAATTTTAGTCATCGAGTAAACAAATTTTCCTAATCTTTCTGTTCAAGCGCCATCTAC” the binding signal was 1.07 RPM ratio (pull-down/input).
In the case of “GATGATTGTTCTCCCAGCTGATGAATTGATACCTTCGAGTAAACAAATTTTCCTAATCTTTCTGTTCAAGCGCCATCTAC”, the binding signal is reported as 1.09 RPM ratio (pull-down/input).
For “GATGATTGTTCTCCCAGCTGATGAATTAGTATAGTCGAGTAAACAAATTTTCCTAATCTTTCTGTTCAAGCGCCATCTAC”, the binding signal was 1.03 RPM ratio (pull-down/input).
With “GATGATTGTTCTCCCAGCTGATGAATTTTGATAATCGAGTAAACAAATTTTCCTAATCTTTCTGTTCAAGCGCCATCTAC” the binding signal was 1.33 RPM ratio (pull-down/input).
With “GATGATTGTTCTCCCAGCTGATGAATTCCTCCGTTCGAGTAAACAAATTTTCCTAATCTTTCTGTTCAAGCGCCATCTAC” the binding signal was 0.836 RPM ratio (pull-down/input).
In the case of “GATGATTGTTCTCCCAGCTGATGAATTAGCCATTTCGAGTAAACAAATTTTCCTAATCTTTCTGTTCAAGCGCCATCTAC”, the binding signal is reported as 0.97 RPM ratio (pull-down/input).
“GATGATTGTTCTCCCAGCTGATGAATTGCAGATTTCGAGTAAACAAATTTTCCTAATCTTTCTGTTCAAGCGCCATCTAC” was tested, and the binding signal was 1.16 RPM ratio (pull-down/input).
For “GATGATTGTTCTCCCAGCTGATGAATTCTGCCCATCGAGTAAACAAATTTTCCTAATCTTTCTGTTCAAGCGCCATCTAC”, the binding signal was 0.911 RPM ratio (pull-down/input).
In the case of “GATGATTGTTCTCCCAGCTGATGAATTGGGTCCATCGAGTAAACAAATTTTCCTAATCTTTCTGTTCAAGCGCCATCTAC”, the binding signal is reported as 0.888 RPM ratio (pull-down/input).
“GATGATTGTTCTCCCAGCTGATGAATTATTTAATTCGAGTAAACAAATTTTCCTAATCTTTCTGTTCAAGCGCCATCTAC” was tested, and the binding signal was 1.18 RPM ratio (pull-down/input).
With “GATGATTGTTCTCCCAGCTGATGAATTGGTCCATTCGAGTAAACAAATTTTCCTAATCTTTCTGTTCAAGCGCCATCTAC” the binding signal was 0.983 RPM ratio (pull-down/input).
In the case of “GATGATTGTTCTCCCAGCTGATGAATTGAGGCATTCGAGTAAACAAATTTTCCTAATCTTTCTGTTCAAGCGCCATCTAC”, the binding signal is reported as 1.07 RPM ratio (pull-down/input).
“GATGATTGTTCTCCCAGCTGATGAATTCCGAGGTTCGAGTAAACAAATTTTCCTAATCTTTCTGTTCAAGCGCCATCTAC” was tested, and the binding signal was 0.708 RPM ratio (pull-down/input).
With “GATGATTGTTCTCCCAGCTGATGAATTGGGCGTCTCGAGTAAACAAATTTTCCTAATCTTTCTGTTCAAGCGCCATCTAC” the binding signal was 0.858 RPM ratio (pull-down/input).
With “GATGATTGTTCTCCCAGCTGATGAATTACACGGTTCGAGTAAACAAATTTTCCTAATCTTTCTGTTCAAGCGCCATCTAC” the binding signal was 1.14 RPM ratio (pull-down/input).
With “GATGATTGTTCTCCCAGCTGATGAATTGACGCAGTCGAGTAAACAAATTTTCCTAATCTTTCTGTTCAAGCGCCATCTAC” the binding signal was 1.13 RPM ratio (pull-down/input).
In the case of “GATGATTGTTCTCCCAGCTGATGAATTAAATTTATCGAGTAAACAAATTTTCCTAATCTTTCTGTTCAAGCGCCATCTAC”, the binding signal is reported as 1.16 RPM ratio (pull-down/input).
In the case of “GATGATTGTTCTCCCAGCTGATGAATTCCACTCCTCGAGTAAACAAATTTTCCTAATCTTTCTGTTCAAGCGCCATCTAC”, the binding signal is reported as 0.792 RPM ratio (pull-down/input).
With “GATGATTGTTCTCCCAGCTGATGAATTCAGACAGTCGAGTAAACAAATTTTCCTAATCTTTCTGTTCAAGCGCCATCTAC” the binding signal was 0.802 RPM ratio (pull-down/input).
In the case of “GATGATTGTTCTCCCAGCTGATGAATTATCACATTCGAGTAAACAAATTTTCCTAATCTTTCTGTTCAAGCGCCATCTAC”, the binding signal is reported as 1.16 RPM ratio (pull-down/input).
“GATGATTGTTCTCCCAGCTGATGAATTCCCGTTTTCGAGTAAACAAATTTTCCTAATCTTTCTGTTCAAGCGCCATCTAC” was tested, and the binding signal was 0.97 RPM ratio (pull-down/input).
With “GATGATTGTTCTCCCAGCTGATGAATTGCTCACCTCGAGTAAACAAATTTTCCTAATCTTTCTGTTCAAGCGCCATCTAC” the binding signal was 0.938 RPM ratio (pull-down/input).
For “GATGATTGTTCTCCCAGCTGATGAATTACACTGGTCGAGTAAACAAATTTTCCTAATCTTTCTGTTCAAGCGCCATCTAC”, the binding signal was 1.03 RPM ratio (pull-down/input).
